Laboratory results: the supplement of paper PMC10126150
Values marked as one replicate rest on one cluster of the flow cell; about a third of the high ones do not repeat.

Test system: ATP
Test: switch fluorescence ratio, 500 uM ATP over buffer (Cy3 cluster intensity, sum of 5 cycles each) (fold (ratio)); higher = stronger signal-on switching upon ATP binding; sequences stand for … in TCGTCGGCAGCGTCAGATGTGTATAAGAGACAGTTTTTTTTTTTTTTTTTTTTTTTTT…TC
Details: aptamer strand: ATP DNA aptamer (quencher-CACCTGGGGGAGTATTGCGGAGGAAGG + anchor), 100 nM annealed; ATP concentration: 500 uM; one replicate
In short: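 For every switch-domain sequence, the fluorescence ratio is the mean of per-cluster values, each being summed target-cycle Cy3 intensity over summed buffer-cycle Cy3 intensity. Clusters outside 100-1000 RFU were excluded. On a modified Illumina MiSeq flow-cell, the Cy3-labelled switching-strand clusters were annealed to 100 nM quencher-labelled ATP aptamer, imaged in selection buffer and then after 15 min with 500 uM ATP at 22 °C. Five such cycles were run, with NaOH stripping and re-annealing between them.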
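Further: ATP exposure 15 min at 22 °C before imaging.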

CATTCCTTTG gave a switch fluorescence ratio of 1.1.
TTACGTCTTT was tested, and the switch fluorescence ratio was 1.
Sequence ACATTGCATG has a switch fluorescence ratio of 1.01.
With AACAGTAGC the switch fluorescence ratio was 1.06.
Work on CGGGGCCCCG yielded a switch fluorescence ratio of 0.967.
In the case of TGACACTAG, the switch fluorescence ratio is reported as 1.06.
For GAATATAGAT, the switch fluorescence ratio was 0.994.
GAGTTGCCGG showed a switch fluorescence ratio of 1.05.
With TATATCTTAA the switch fluorescence ratio was 0.979.
ATGTTTCTTG was tested, and the switch fluorescence ratio was 0.968.
Work on TACTGCAATG yielded a switch fluorescence ratio of 1.31.
CGTATGCGCT was tested, and the switch fluorescence ratio was 0.959.
TCACATAACT gave a switch fluorescence ratio of 1.14.
GAAATGGGT was tested, and the switch fluorescence ratio was 0.983.
Sequence TCGGAAGTGT has a switch fluorescence ratio of 0.97.
TCACGACCGA gave a switch fluorescence ratio of 1.18.
CCTAAATTAG was tested, and the switch fluorescence ratio was 1.01.
Sequence ATGTACCAGC has a switch fluorescence ratio of 1.04.
In the case of AACTCGGCGT, the switch fluorescence ratio is reported as 0.994.
In the case of TCTTAATTGT, the switch fluorescence ratio is reported as 0.984.
TTGATTCGCG showed a switch fluorescence ratio of 1.04.
GGTTTTCCGA was tested, and the switch fluorescence ratio was 1.05.
GGGGTCACCA gave a switch fluorescence ratio of 0.986.
Sequence CAGAGCAATG has a switch fluorescence ratio of 3.19.
Sequence ATATAGTATT has a switch fluorescence ratio of 1.02.
For AAACTCTATG, the switch fluorescence ratio was 0.981.
With CCTGGATCTT the switch fluorescence ratio was 1.01.
In the case of CCGATAAAAC, the switch fluorescence ratio is reported as 2.31.
GTTGTTGCCA showed a switch fluorescence ratio of 0.982.
Work on TCTGAACACG yielded a switch fluorescence ratio of 0.999.
For TGCAATTTAT, the switch fluorescence ratio was 1.03.
With GGGGGTCGAT the switch fluorescence ratio was 1.03.
In the case of TTCACTGGGT, the switch fluorescence ratio is reported as 1.01.
AGGGTTGATG gave a switch fluorescence ratio of 0.985.
For GTTTACCCTC, the switch fluorescence ratio was 0.996.
TGTCGTAGAG was tested, and the switch fluorescence ratio was 1.04.
With TTAATGCACT the switch fluorescence ratio was 1.02.
For TGGAGCACGT, the switch fluorescence ratio was 1.05.
TTCGGTAAGA showed a switch fluorescence ratio of 1.1.
With GTGTGGAATG the switch fluorescence ratio was 0.959.
With ACGTGGTGCG the switch fluorescence ratio was 0.939.
In the case of ATACTGGCAC, the switch fluorescence ratio is reported as 1.15.
Sequence GTGTGTCCCG has a switch fluorescence ratio of 0.953.
Sequence TTGCGTGGTT has a switch fluorescence ratio of 0.978.
With CTTTCGCCTC the switch fluorescence ratio was 1.43.
For TATATTATAA, the switch fluorescence ratio was 1.01.
Sequence ACCGTCACTT has a switch fluorescence ratio of 1.31.
For TCATTCGTAG, the switch fluorescence ratio was 1.03.
For ATTACAAATC, the switch fluorescence ratio was 1.04.
CTTTAGCAGC was tested, and the switch fluorescence ratio was 1.54.
Work on AGGTCGAGTG yielded a switch fluorescence ratio of 0.986.
Work on TGGGACATTG yielded a switch fluorescence ratio of 0.993.
TCTCTATGTT was tested, and the switch fluorescence ratio was 0.996.
With CCACCGGTCT the switch fluorescence ratio was 1.12.
In the case of TCTAAGTGTG, the switch fluorescence ratio is reported as 1.
Work on ATGTTCCTGC yielded a switch fluorescence ratio of 0.974.
In the case of CCGCCTGCAC, the switch fluorescence ratio is reported as 4.55.
Sequence GCTCTTAACT has a switch fluorescence ratio of 1.05.
ACGGAGGTCC gave a switch fluorescence ratio of 1.01.
TCTCGTATT was tested, and the switch fluorescence ratio was 1.11.
GGAAAAGCAG was tested, and the switch fluorescence ratio was 1.01.
Work on TTGAAAGAGT yielded a switch fluorescence ratio of 0.996.
For CCCTTATTAG, the switch fluorescence ratio was 1.02.
In the case of AGTACTTCGG, the switch fluorescence ratio is reported as 1.01.
Sequence GATGTCCGTT has a switch fluorescence ratio of 1.
For AGCCGCGCTT, the switch fluorescence ratio was 0.982.
With GTTGTTCTT the switch fluorescence ratio was 0.969.
In the case of TAAGCCACGT, the switch fluorescence ratio is reported as 1.01.
GGTCTCACG showed a switch fluorescence ratio of 1.02.
Work on CGTGTTCAAT yielded a switch fluorescence ratio of 1.06.
CATTTGAGAA gave a switch fluorescence ratio of 0.999.
CGATTACTAG was tested, and the switch fluorescence ratio was 1.02.
AAATGTGTTT showed a switch fluorescence ratio of 1.02.
For GCTAGAAACT, the switch fluorescence ratio was 1.03.
With TTGTCTGGGT the switch fluorescence ratio was 0.963.
Work on GGCCGTCTGT yielded a switch fluorescence ratio of 0.992.
CACAGGCGGG gave a switch fluorescence ratio of 1.01.
Work on ATAGGCACGT yielded a switch fluorescence ratio of 1.01.
Work on AACATCTTTT yielded a switch fluorescence ratio of 0.999.
Work on CTCGAGTCTG yielded a switch fluorescence ratio of 1.03.
Work on GGGTGGTGCG yielded a switch fluorescence ratio of 0.999.
CGTGTTCCCA was tested, and the switch fluorescence ratio was 0.977.
Work on TTTGTTTGCC yielded a switch fluorescence ratio of 0.994.
TACAGGTAAC gave a switch fluorescence ratio of 1.06.
TATGACTCGA gave a switch fluorescence ratio of 0.983.
With GTGCGCGCTG the switch fluorescence ratio was 1.02.
For TTAAAGTATA, the switch fluorescence ratio was 0.978.
For CTTAGCAGCG, the switch fluorescence ratio was 0.97.
CGTTAAGATT showed a switch fluorescence ratio of 0.995.
In the case of TAAGATGTTC, the switch fluorescence ratio is reported as 0.997.
Sequence TAGAGGTTT has a switch fluorescence ratio of 0.951.
With GAGGTTCATG the switch fluorescence ratio was 1.
Sequence ATTACGGTT has a switch fluorescence ratio of 1.
With GCTCGTTTG the switch fluorescence ratio was 1.04.
Sequence CCAAGGTGA has a switch fluorescence ratio of 2.1.
In the case of GCCTCATTGC, the switch fluorescence ratio is reported as 1.11.
CTTATACCAG gave a switch fluorescence ratio of 0.971.
ACATTTACAG gave a switch fluorescence ratio of 1.11.
GGGTGAAACT showed a switch fluorescence ratio of 0.972.
Sequence AAGTATAGCC has a switch fluorescence ratio of 1.
GGCGCTAAA was tested, and the switch fluorescence ratio was 0.982.
GCACGCTCTA gave a switch fluorescence ratio of 1.09.
CATTACCAGA gave a switch fluorescence ratio of 1.04.
Work on TTAGGCATCG yielded a switch fluorescence ratio of 0.982.
ACGAGGGACG showed a switch fluorescence ratio of 0.993.
In the case of TTCGTGGAGC, the switch fluorescence ratio is reported as 0.978.
Work on AGTTTCAGGG yielded a switch fluorescence ratio of 1.02.
Work on CGAGGGCTTG yielded a switch fluorescence ratio of 1.03.
AAAGCACCCG showed a switch fluorescence ratio of 1.06.
With TCCGAGATGT the switch fluorescence ratio was 1.08.
With TGCCCGGGTA the switch fluorescence ratio was 1.04.
For GTCCTACAAT, the switch fluorescence ratio was 0.985.
AGCCGGGTAC gave a switch fluorescence ratio of 1.16.
ACTAATAAAT was tested, and the switch fluorescence ratio was 1.
For TTATGAAGTA, the switch fluorescence ratio was 0.975.
Work on TAATCATAGG yielded a switch fluorescence ratio of 1.01.
TGGGTACCTG was tested, and the switch fluorescence ratio was 1.01.
For AACAGAGTCC, the switch fluorescence ratio was 1.02.
CTCATCGGCA gave a switch fluorescence ratio of 1.27.
For GCGCCCGTAA, the switch fluorescence ratio was 1.17.
Work on CCAGGATGGT yielded a switch fluorescence ratio of 1.07.
In the case of TTACAGTTCC, the switch fluorescence ratio is reported as 1.13.
CCTTTCTTGC was tested, and the switch fluorescence ratio was 1.36.
CGGGCCCTAC was tested, and the switch fluorescence ratio was 0.997.
In the case of ACGCGGTCGC, the switch fluorescence ratio is reported as 1.
Work on CATTCTCACT yielded a switch fluorescence ratio of 0.99.
AGAAATTTAA gave a switch fluorescence ratio of 1.19.
With CTGATCAGGA the switch fluorescence ratio was 0.96.
For TGGTATGAC, the switch fluorescence ratio was 0.997.
TGATCCTACC showed a switch fluorescence ratio of 1.26.
Sequence TGTGGCGGTA has a switch fluorescence ratio of 1.04.
Sequence CACAGTGAGG has a switch fluorescence ratio of 0.962.
AGCGGTCCAA showed a switch fluorescence ratio of 1.06.
Sequence GGGCGCTAGT has a switch fluorescence ratio of 1.01.
AACCACCGAT showed a switch fluorescence ratio of 1.1.
Sequence TCAATCCCGA has a switch fluorescence ratio of 1.04.
AGCAGAATTT gave a switch fluorescence ratio of 0.981.
GAATTACTCA gave a switch fluorescence ratio of 1.08.
ATCCGTTGAA showed a switch fluorescence ratio of 1.04.
In the case of TCTCCAAAGG, the switch fluorescence ratio is reported as 1.08.
CAGTTGTCCT gave a switch fluorescence ratio of 0.998.
Work on AATGTATCTT yielded a switch fluorescence ratio of 1.
Sequence CGCTGTTGGG has a switch fluorescence ratio of 0.997.
With GTGCTATTAA the switch fluorescence ratio was 1.02.
For CATCGGTTAA, the switch fluorescence ratio was 0.983.
Work on AATGTGGCGG yielded a switch fluorescence ratio of 0.997.
With CCGGGTTGTG the switch fluorescence ratio was 0.99.
For TCCATTGTT, the switch fluorescence ratio was 0.977.
Work on GCAGCTTTCC yielded a switch fluorescence ratio of 1.48.
Sequence ACGCCCAGAA has a switch fluorescence ratio of 1.04.
CTTCGTCGTG showed a switch fluorescence ratio of 0.98.
Work on TCCTTCAGAC yielded a switch fluorescence ratio of 1.55.
Sequence GTGTAATAGC has a switch fluorescence ratio of 0.962.
For GCCAGAGGAC, the switch fluorescence ratio was 1.04.
For TTCTCGGTTC, the switch fluorescence ratio was 1.05.
AAGCCTGACC was tested, and the switch fluorescence ratio was 1.81.
Sequence TTCGGATTAC has a switch fluorescence ratio of 2.71.
Sequence AACGTGGGCA has a switch fluorescence ratio of 0.988.
For GACGGGGGCC, the switch fluorescence ratio was 0.981.
In the case of TGGACCAGGC, the switch fluorescence ratio is reported as 1.03.
With GATACGGTAA the switch fluorescence ratio was 1.11.
ACACTCTCCA was tested, and the switch fluorescence ratio was 0.989.
TCACCTCAAA showed a switch fluorescence ratio of 1.02.
GGATGGTCAG was tested, and the switch fluorescence ratio was 0.995.
CAGCGGGGC showed a switch fluorescence ratio of 1.09.
Work on CGACAATCGT yielded a switch fluorescence ratio of 1.01.
GGGACACCTC was tested, and the switch fluorescence ratio was 0.95.
For ATCAGATTCC, the switch fluorescence ratio was 1.08.
TTCCCCAAGC was tested, and the switch fluorescence ratio was 1.17.
TGATTCAAAC gave a switch fluorescence ratio of 0.961.
GAACTATTTA gave a switch fluorescence ratio of 1.09.
AAGCAGTGGC was tested, and the switch fluorescence ratio was 1.11.
Work on TACTGAGGAG yielded a switch fluorescence ratio of 1.03.
ACCGTGACCG gave a switch fluorescence ratio of 1.06.
Sequence CTGTGCATCT has a switch fluorescence ratio of 1.01.
TCGATGGGAT showed a switch fluorescence ratio of 1.03.
Sequence TCGGGGATTA has a switch fluorescence ratio of 1.01.
Work on CACGACAAGG yielded a switch fluorescence ratio of 0.99.
ATCCTTTTAT showed a switch fluorescence ratio of 0.963.
Work on CAAAAGTTTT yielded a switch fluorescence ratio of 0.95.
With CTGTTTCATA the switch fluorescence ratio was 0.989.
TGGCTTAGGT gave a switch fluorescence ratio of 0.978.
Work on AGGGCTTGAT yielded a switch fluorescence ratio of 1.
For TTGCATGTTC, the switch fluorescence ratio was 1.08.
AACGATGGAG showed a switch fluorescence ratio of 0.996.
TGCATTGAAG gave a switch fluorescence ratio of 0.953.
CAGAAACTTG was tested, and the switch fluorescence ratio was 0.883.
GCCTGCGTTT gave a switch fluorescence ratio of 0.97.
Sequence GGTGCAGGAT has a switch fluorescence ratio of 1.
ATATACGCT gave a switch fluorescence ratio of 1.06.
For TCGGAGAGCA, the switch fluorescence ratio was 1.06.
AGAAAGAAGC was tested, and the switch fluorescence ratio was 0.972.
In the case of GATGAAGTAG, the switch fluorescence ratio is reported as 1.01.
GTGCACGGA gave a switch fluorescence ratio of 1.48.
TGCAGCGGAA was tested, and the switch fluorescence ratio was 1.05.
ACCGCGTCTG was tested, and the switch fluorescence ratio was 1.02.
Work on ATTGCTGTGT yielded a switch fluorescence ratio of 0.997.
Work on TTTGGTGGG yielded a switch fluorescence ratio of 0.995.
GATTTCTGTG was tested, and the switch fluorescence ratio was 0.966.
Work on GCTTGTGTCC yielded a switch fluorescence ratio of 0.972.
